Source: PubChem BioAssay AID1458 (National Center for Advancing Translational Sciences (NCATS), 2008)
The campaign covered roughly 210,000 compounds. About 5,900 (2.8%) were called active. Inconclusive means that the source gave no clear call. Such entries were picked first, then a sample of the others. Calls follow the shape of the dose curve; as a rule, active = well fitted activation curve with a large enough effect; inconclusive = small, poorly fitted or top-dose-only effect; inactive = no such curve, though single readings can be large or run the other way. A potency beside an inconclusive call is a rough fit, not a confirmed value.

assay: qHTS Assay for Enhancers of SMN2 Splice Variant Expression; settings: HEK293 SMN2-luciferase splicing reporter, luminescence, 30-36 h; activity change, positive = activation: at 46.1 µM (top of the series); also: nearly all actives have a fitted effect of over 55% in size; as to activity change, positive = activation: % of control where 0% means no effect
Procedure, shortened: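 HEK293 cells carry an SMN2 […]–luciferase reporter in which exon 7 inclusion puts luciferase in frame. Cells were plated 10-12 h before compound addition, then incubated 30-36 h at 37C. ONE-Glo luminescence was read; sodium butyrate at 4.5 mM final served as control.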
Potency is read from the fitted curve at half-maximal effect; tags tell the direction and shape of the fitted curve.

| Compound | Potency | activity change, positive = activation |
| --- | --- | --- |
| COc1cccc(-n2c(SCC(=O)Nc3cc(C)on3)nc3c([nH]c4ccccc43)c2=O)c1 | inconclusive: 31.6 µM [activator, single point] |  |
| COc1cc(/C=N/NC(=O)c2cc(-c3ccccc3OC(C)C)nc3ccccc23)ccc1O | inconclusive: 35.5 µM [activator, single point] |  |
| COc1ccccc1C/C(N)=N/OC(=O)COc1cccc(C)c1 | inconclusive: 0.891 µM [activator, full curve, poor fit] |  |
| Cn1/c(=N/NC(=O)c2ccccc2Br)sc2ccccc21 | inconclusive: 12.6 µM [activator, single point] |  |
| Cc1ccc(S(=O)(=O)/N=C(\Nc2cc(C)on2)c2ccc(Cl)cc2)cc1 | inconclusive: 22.4 µM [activator, single point] |  |
| COc1ccc(/C(N)=N/OC(=O)COc2ccccc2Cl)cc1 | inconclusive: 22.4 µM [activator, single point] |  |
| COc1ccc(NC(=O)c2cc3c(s2)CCC(C)C3)cc1S(=O)(=O)N1CCOCC1 (centres undefined) |  | inactive: -65.1% |
| O=C(CCC1COc2ccccc2O1)Nc1ncccc1O (centres undefined) | inconclusive: 3.98 µM [activator, full curve] |  |
| O=C(O)C1C2C=CC(C2)C1C(=O)NC1CCN(Cc2ccccc2)CC1 (centres undefined) | inconclusive: 0.004 µM [activator, full curve, poor fit] |  |
| COc1ccc(CCNC(=S)N2CCC(C(=O)c3ccc(F)cc3)CC2)cc1OC |  | inactive: -65.4% |
| O=C(/C=C/c1ccccc1)NCCOc1ccccc1 | inconclusive: 17.8 µM [activator, single point] |  |
| Fc1ccc(Nc2ncnc3onc(-c4ccc(Cl)cc4)c23)cc1Cl | inconclusive: 3.16 µM [activator, single point] |  |
| COc1ccc(Nc2nc3ccccc3s2)cc1 | active: 10 µM |  |
| O=C(Nc1cnn(Cc2ccc(Cl)cc2)c1)c1ccc([N+](=O)[O-])cc1 |  | inactive: -31.4% |
| CCCSC1=N/C(=C\c2ccc3c(c2)OCO3)C(=O)S1 | inconclusive: 12.6 µM [activator, partial curve, poor fit] |  |
| COc1ccc(NC(=O)c2cc(-c3ccco3)on2)cc1 |  | inconclusive: 87.4% [activator] |
| O=C(Nc1ccc(-n2nncc2-c2ccco2)cc1)c1cc2ccccc2oc1=O |  | inactive: -11.7% |
| O=C1C(Cl)=C(NCCN2CCOCC2)C(=O)c2ncccc21 |  | inactive: -94.2% |
| Nc1ccc(S(=O)(=O)NCc2nccs2)cc1 |  | inactive: -12.8% [at 9.22 µM] |
| CCC(=O)N1CCc2cc(Br)cc(S(=O)(=O)N3CCN(c4ccccc4OC)CC3)c21 |  | inactive: 2.12% |
| COc1ccc(C(CCNCc2ccccc2F)c2ccc(F)cc2)cc1 (centres undefined) | inconclusive: 5.62 µM [activator, single point] |  |
| O=C(c1ccccc1)[C@H]1[C@H](c2ccccc2)[C@@]2(N=C(c3ccccc3)OC2=O)C2c3ccccc3C=NN21 (some centres undefined) | inconclusive: 35.5 µM [activator, single point] |  |
| COc1ccc(NC(=O)N2CCOCC2)cc1OC | inconclusive: 6.31 µM [activator, single point] |  |
| Cc1cc(C)n2cc(CSc3nncn3C)nc2n1 |  | inactive: 7.25% |
| c1ccc(CCc2nn3c(Cc4ccccc4)nnc3s2)cc1 | inconclusive: 2 µM [activator, partial curve] |  |

| Compound | Potency | activity change, positive = activation |
| --- | --- | --- |
| COC(=O)[C@@H]1C[C@H]1[C@@H](N)c1ccccc1 |  | inactive: -6.57% |
| O=C(CSc1ccc(Cl)cc1)Nc1ccc(NC(=O)c2ccco2)cc1 | inconclusive: 3.16 µM [activator, full curve] |  |
| CCn1c2ccccc2c2cc(/C=N/NC(=O)c3cccc(C)c3)ccc21 |  | inactive: -66.4% |
| CC(=O)Nc1ccc(-c2nc3c(C)cccc3[nH]2)cc1 | active: 3.55 µM |  |
| O=C(CSc1ccc(Cl)cc1)N1CCCC1 | inconclusive: 35.5 µM [activator, single point] |  |
| Brc1ccc2ncnc(NCc3ccccc3)c2c1 |  | inactive: -76.2% |
| O=c1cc(O)cc(/C=C/c2ccc(O)c(O)c2)o1 | inconclusive: 0.794 µM [activator, partial curve, poor fit] |  |
| Cc1nc2nc(NCc3ccc(Cl)cc3)[nH]n2c(=O)c1Cc1ccccc1 |  | inactive: 7.21% |
| CCCn1c(O)c(N=Nc2ccc3ccccc3n2)c2ccccc21 | inconclusive: 31.6 µM [activator, single point] |  |
| CCOC(=O)c1ccc(N=C2S/C(=C\c3cc(C)n(-c4cccnc4)c3C)C(=O)N2C)cc1 |  | inactive: 10.4% |
| CC(C)(C)NC[C@H](O)COc1cccc2c1CCC(=O)N2 |  | inactive: -4.45% [at 20.6 µM] |
| Cc1ccc2c(CC(=O)Nc3ccc(S(=O)(=O)N4CCCCC4)cc3)coc2c1 |  | inactive: -9.97% |
| O=C(c1ccc(F)cc1)N1CCCCC(Sc2nnc3ccccn23)C1=O (centres undefined) | inconclusive: 35.5 µM [activator, single point] |  |
| Cc1cccnc1NC(=O)C1CCN(S(=O)(=O)c2ccc3c(c2)CCC(=O)N3)CC1 | inconclusive: 35.5 µM [activator, single point] |  |
| CCCc1cc(=O)oc2cc(OCC(=O)N(C)C)c(Cl)cc12 | inconclusive: 0.562 µM [activator, single point] |  |
| Cc1ccccc1NC(=O)c1c(NC(=O)Cc2ccccc2)sc2c1CCC2 |  | inactive: -2.3% |
| CCOCc1nnc(NC(=O)c2cccc(OC)c2)s1 | inconclusive: 14.1 µM [activator, partial curve] |  |
| O=C(O)c1ccc(Nc2nc(-c3cc4ccccc4oc3=O)cs2)cc1O |  | inactive: 0.987% |
| CC1CCN(C(=O)c2ccc3c(c2)OCCO3)CC1 | inconclusive: 1.26 µM [activator, full curve, poor fit] |  |
| O=S(=O)(Nc1ccc(N2CCOCC2)cc1)c1ccc(F)cc1F |  | inactive: 0.258% |
| Cn1c(N)c(C(=O)COC(=O)c2ncc(Cl)c(Cl)c2Cl)c(=O)n(C)c1=O | inconclusive: 14.1 µM [activator, single point] |  |
| Cc1cc(NC2CCCCC2)nc2ccccc12 | inconclusive: 3.16 µM [activator, single point] |  |
| C=CCn1c(-c2ccc(OC)cc2)nc2ccccc21 | inconclusive: 35.5 µM [activator, single point] |  |
| CC1CC(C)CN(CC(O)COc2ccc3c(c2)CCC3)C1 (centres undefined) | inconclusive: 0.0089 µM [activator, full curve, poor fit] |  |
| Cc1ccc2oc(-c3cc(NC(=O)c4ccco4)ccc3Cl)nc2c1 |  | inactive: -10.5% |

| Compound | Potency | activity change, positive = activation |
| --- | --- | --- |
| COc1ccc(-c2cc(C(=O)O)nc3ccc4ccccc4c23)cc1OC |  | inactive: 14.9% |
| c1cncc(CSc2ncnc3nc[nH]c23)c1 |  | inactive: -3.68% [at 9.22 µM] |
| O=C(CN1C(=O)C2CC=CCC2C1=O)OCc1cc(=O)n2cc(Br)ccc2n1 (centres undefined) | inconclusive: 10 µM [activator, partial curve] |  |
| CCOc1cc(C)c(S(=O)(=O)Nc2ccc3cn[nH]c3c2)cc1C |  | inactive: -54.7% |
| CCNC(=O)NC(=O)C(C)OC(=O)c1oc2ccccc2c1CSC1CCCCC1 (centres undefined) | inconclusive: 0.0316 µM [activator, full curve] |  |
| N#Cc1c(-c2cccs2)cc(-c2ccccn2)nc1N | inconclusive: 35.5 µM [activator, single point] |  |
| O=C(NCCc1cn2ccsc2n1)c1cccs1 | inconclusive: 2.82 µM [activator, full curve] |  |
| Oc1cccc2ccc(/C=C/c3c(F)cccc3Cl)nc12 | active: 25.1 µM |  |
| Clc1ccc(-c2nnc(-c3ccco3)o2)cc1 | inconclusive: 12.6 µM [activator, partial curve] |  |
| O=C(Nc1nc(=S)ss1)c1ccc(Cl)cc1Cl | inconclusive: 8.91 µM [activator, partial curve, poor fit] |  |
| COC(=O)C1CCN(C(=O)NC(C)(C)C)CC1 | inconclusive: 5.62 µM [activator, partial curve, poor fit] |  |
| O=C(Nn1cnc2ccccc2c1=O)c1ccc(F)cc1Cl | inconclusive: 35.5 µM [activator, single point] |  |
| O=C(NC1CCCCC1)C1CC(O)CN1C(=O)OCc1ccccc1 (centres undefined) | inconclusive: 0.01 µM [activator, full curve, poor fit] |  |
| CC(=O)Nc1cccc(-c2cn3ccccc3n2)c1 | inconclusive: 15.8 µM [activator, single point] |  |
| CN1c2ccccc2C(C)(C)C12CC(c1ccc(S(=O)(=O)N3CCCCC3)cc1)=NO2 (centres undefined) | active: 1.12 µM |  |
| CC1(C)O[C@H]2[C@@H](O1)[C@@H](C(=O)Nc1ccc(F)c(F)c1)O[C@@H]1OC(C)(C)O[C@@H]12 |  | inactive: -6.01% |
| O=C(COC(=O)c1cncc(Br)c1)NC1CCCCC1 | inconclusive: 35.5 µM [activator, single point] |  |
| COc1ccc(-c2nn(C)c(=O)c3ccccc23)cc1CNC(=O)c1ccco1 | inconclusive: 14.1 µM [activator, partial curve] |  |
| Fc1ccccc1Nc1nc2ccccc2n2nnnc12 | inconclusive: 11.2 µM [activator, partial curve] |  |
| CCOC(=O)Cn1cncc1-c1ccc([N+](=O)[O-])cc1 | inconclusive: 35.5 µM [activator, single point] |  |
| O=C(CCCN1C(=O)c2ccccc2C1=O)Nc1nncs1 |  | inactive: -8.25% |
| CCOC(=O)c1sc2nc3c(cc2c1N)C(=O)CC(C)(C)C3 | inconclusive: 35.5 µM [activator, single point] |  |
| O=c1nc(N2CCOCC2)ccn1Cc1ccc(Br)cc1 | inconclusive: 0.141 µM [activator, full curve, poor fit] |  |
| Cc1ccc(C(=O)c2c(NC(=O)CSc3nnc(N)s3)sc3c2CCCC3)cc1 | inconclusive: 0.0141 µM [activator, full curve, poor fit] |  |
